Laboratory results: patent US20240270806A1 (Chugai, published 2024)

Molecular target: Human IL-12 receptor (human IL-12Rb1 and IL-12Rb2) (human, UniProt P42701 24-662; Q99665 24-862)
Test: cell-based or functional assay

B1: Bivalent IL-12 fusion FP5 (other)
heavy: QVQLVQSGAEVKKPGASVKVSCKASGYTFTDYYLHWVRQAPGQGLEWMGWIDPENGDTEYAPKFQGRVTMTTDTSTSTAYMELRSLRSDDTAVYYCNANKELRYFDVWGQGTMVTVSSTSTSGRSANPRGASTKGPSVFPLAPSSKSTSGGTAALGCLVKDYFPEPVTVSWNSGALTSGVHTFPAVLQSSGLYSLSSVVTVPSSSLGTQTYICNVNHKPSNTKVDKRVGGGGSGGGGS[human IgG1 Fc with changes cut from this listing]GSGGSGGSGGSGGSGGSIWELKKDVYVVELDWYPDAPGEMVVLTCDTPEEDGITWTLDQSSEVLGSGKTLTIQVKEFGDAGQYTCHKGGEVLSHSLLLLHKKEDGIWSTDILKDQKEPKNKTFLRCEAKNYSGRFTCWWLTTISTDLTFSVKSSRGSSDPQGVTCGAATLSAERVRGDNKEYEYSVECQEDSACPAAEESLPIEVMVDAVHKLKYENYTSSFFIRDIIKPDPPKNLQLKPLKNSRQVEVSWEYPDTWSTPHSYFSLTFCVQVQGKSKREKKDRVFTDKTSATVICRKNASISVRAQDRYYSSSWSEWASVPCSGGGGSGGGGSGGGGSGGGGSRNLPVATPDPGMFPCLHHSQNLLRAVSNMLQKARQTLEFYPCTSEEIDHEDITKDKTSTVEACLPLELTKNESCLNSRETSFITNGSCLASRKTSFMMALCLSSIYEDLKMYQVEFKTMNAKLLMDPKRQIFLDQNMLAVIDELMQALNFNSETVPQKSSLEEPDFYKTKIKLCILLHAFRIRAVTIDRVMSYLNAS
light: EIVMTQSPATLSVSPGERATLSCRASQSISINLHWYQQKPGQAPRLLIYFASQSISGIPARFSGSGSGTEFTLTISSLQSEDFAVYYCQQSNSFPLTFGGGTKVEIKRTVAAPSVFIFPPSDEQLKSGTASVVCLLNNFYPREAKVQWKVDNALQSGNSQESVTEQDSKDSTYSLSSTLTLSKADYEKHKVYACEVTHQGLSSPVTKSFNRGEC
B1 was tested, and the “EC50 (read off the curve), IL-12 luciferase reporter assay (+ MTSP1) [right graph]” value was about 200 pM.
